Data on 20 molecules can be found in publication PMC9911399, “Two distinct binding modes provide the RNA-binding protein RbFox with extraordinary sequence specificity”.

Substitutions are numbered along the chain they refer to; changes in the protein carry UniProt numbers. The list shows a part of the results.

B1: UCGUGUG (DNA:RNA)
RNA: GGGAGACCGGAAUUCAGAUUGUCCUCGUGUGUUAAAUCCCGUCGUAGCCACCA
DNA 1: CAATCTGAATTCCGGTCTCCC
DNA 2: TGGTGGCTACGACGGGATT
B2: UCGCUCG (DNA:RNA)
RNA: B1 RNA with U28C, G29U, U30C
DNA 1: CAATCTGAATTCCGGTCTCCC
DNA 2: TGGTGGCTACGACGGGATT
B3: GCUUCUC (DNA:RNA)
RNA: B1 RNA with U25G, G27U, G29C, G31C
DNA 1: CAATCTGAATTCCGGTCTCCC
DNA 2: TGGTGGCTACGACGGGATT
B4: GUAGUAA (DNA:RNA)
RNA: GGGAGACCGGAAUUCAGAUUGUCCGUAGUAAUUAAAUCCCGUCGUAGCCACCA
DNA 1: CAATCTGAATTCCGGTCTCCC
DNA 2: TGGTGGCTACGACGGGATT
B5: AUAAGUA (DNA:RNA)
RNA: B4 RNA with G25A, G28A, U29G, A30U
DNA 1: CAATCTGAATTCCGGTCTCCC
DNA 2: TGGTGGCTACGACGGGATT
B6: CAAAUGC (DNA:RNA)
RNA: B4 RNA with G25C, U26A, G28A, A30G, A31C
DNA 1: CAATCTGAATTCCGGTCTCCC
DNA 2: TGGTGGCTACGACGGGATT
B7: AGAGGCC (DNA:RNA)
RNA: B4 RNA with G25A, U26G, U29G, A30C, A31C
DNA 1: CAATCTGAATTCCGGTCTCCC
DNA 2: TGGTGGCTACGACGGGATT
B8: CAACAAC (DNA:RNA)
RNA: B4 RNA with G25C, U26A, G28C, U29A, A31C
DNA 1: CAATCTGAATTCCGGTCTCCC
DNA 2: TGGTGGCTACGACGGGATT
B9: AUGUUGC (DNA:RNA)
RNA: B4 RNA with G25A, A27G, G28U, A30G, A31C
DNA 1: CAATCTGAATTCCGGTCTCCC
DNA 2: TGGTGGCTACGACGGGATT
B10: UUGUUAU (DNA:RNA)
RNA: B4 RNA with G25U, A27G, G28U, A31U
DNA 1: CAATCTGAATTCCGGTCTCCC
DNA 2: TGGTGGCTACGACGGGATT
B11: GCGCCUA (DNA:RNA)
RNA: B1 RNA with U25G, U28C, G29C, G31A
DNA 1: CAATCTGAATTCCGGTCTCCC
DNA 2: TGGTGGCTACGACGGGATT
B12: AUCCAAC (DNA:RNA)
RNA: B4 RNA with G25A, A27C, G28C, U29A, A31C
DNA 1: CAATCTGAATTCCGGTCTCCC
DNA 2: TGGTGGCTACGACGGGATT
B13: UUAACCG (DNA:RNA)
RNA: B4 RNA with G25U, G28A, U29C, A30C, A31G
DNA 1: CAATCTGAATTCCGGTCTCCC
DNA 2: TGGTGGCTACGACGGGATT
B14: GUAAGCU (DNA:RNA)
RNA: B4 RNA with G28A, U29G, A30C, A31U
DNA 1: CAATCTGAATTCCGGTCTCCC
DNA 2: TGGTGGCTACGACGGGATT
B15: GUUCAUU (DNA:RNA)
RNA: B4 RNA with A27U, G28C, U29A, A30U, A31U
DNA 1: CAATCTGAATTCCGGTCTCCC
DNA 2: TGGTGGCTACGACGGGATT
B16: UUCGUGG (DNA:RNA)
RNA: B4 RNA with G25U, A27C, A30G, A31G
DNA 1: CAATCTGAATTCCGGTCTCCC
DNA 2: TGGTGGCTACGACGGGATT
B17: AACCGUC (DNA:RNA)
RNA: B1 RNA with U25A, C26A, G27C, U28C, G31C
DNA 1: CAATCTGAATTCCGGTCTCCC
DNA 2: TGGTGGCTACGACGGGATT
B18: UUCCAGG (DNA:RNA)
RNA: B1 RNA with C26U, G27C, U28C, G29A, U30G
DNA 1: CAATCTGAATTCCGGTCTCCC
DNA 2: TGGTGGCTACGACGGGATT
B19: AAGCACU (DNA:RNA)
RNA: B1 RNA with U25A, C26A, U28C, G29A, U30C, G31U
DNA 1: CAATCTGAATTCCGGTCTCCC
DNA 2: TGGTGGCTACGACGGGATT
B20: CUAUAGG (DNA:RNA)
RNA: B4 RNA with G25C, G28U, U29A, A30G, A31G
DNA 1: CAATCTGAATTCCGGTCTCCC
DNA 2: TGGTGGCTACGACGGGATT

The target of this assay is T1, RBFOX1 RRM RbFoxmut (Fox-RRM*) (Homo sapiens, UniProt Q9NWB1 109-208, R118D;E147R;N151S;E152T).
T1 sequence: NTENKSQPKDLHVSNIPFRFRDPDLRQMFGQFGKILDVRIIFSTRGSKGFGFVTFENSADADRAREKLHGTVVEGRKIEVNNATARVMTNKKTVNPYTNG
Put plainly: EMSA; HiTS-Eq, 1 nM pool, 10 min; buffer printed only for the single-RNA assays: 10 mM Tris pH 7.5, 150 mM NaCl, 3.4 mM EDTA, 0.001% NP-40, 30 C. Conditions: tags: His6 N-terminal (pET28a); label: 5' 32P. An outline of the steps:
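Purified RbFox RRM, wild type or mutant, was incubated for 10 min in 50 µL with 1 nM of a 5′-radiolabelled RNA pool carrying 7 randomized nucleotides, whose flanks were annealed to DNA oligonucleotides, over a series of increasing protein concentrations. Unbound RNA was resolved on 8% native PAGE, cut out, reverse-transcribed, barcoded by PCR and sequenced on an Illumina HiSeq 2500. Relative association constants were derived from changes in read counts for each RNA species versus the control reaction and normalised to the cognate motif.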
Take B1: the binding signal is 0.2 KA relative to UGCAUGU.
For B2, the binding signal was 0.148 KA relative to UGCAUGU.
Next, B3: 0.0727 KA relative to UGCAUGU; B4: 0.126 KA relative to UGCAUGU.
For the molecule B5, the binding signal was 0.149 KA relative to UGCAUGU.
With B6, the binding signal is 0.0743 KA relative to UGCAUGU.
Next, B7: 0.143 KA relative to UGCAUGU; B8: 0.0578 KA relative to UGCAUGU.
Take B9: the binding signal was 0.162 KA relative to UGCAUGU.
Next, B10: 0.184 KA relative to UGCAUGU; B11: 0.0815 KA relative to UGCAUGU; B12: 0.101 KA relative to UGCAUGU.
Next, B13: 0.119 KA relative to UGCAUGU.
Next, B14: 0.0747 KA relative to UGCAUGU.
With B15, the binding signal is 0.0749 KA relative to UGCAUGU.
Next, B16: 0.099 KA relative to UGCAUGU; B17: 0.0442 KA relative to UGCAUGU.
As to B18, the binding signal is 0.081 KA relative to UGCAUGU.
Regarding B19, the binding signal is 0.0773 KA relative to UGCAUGU.
As for B20, the figure is 0.0751 KA relative to UGCAUGU.
